Data: the supplement of paper PMC4967469

What was measured:
Assay in all cases: Viability of human cancer cell lines after 72 h of drug (GDSC screen)
JQ1 = compound: Cc1sc2c(c1C)C(c1ccc(Cl)cc1)=N[C@@H](CC(=O)OC(C)(C)C)c1nnc(C)n1-2 [JQ1]
Procedure: (§1)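 Human cancer cell lines in 384-well plates, medium with 10% serum, drug for 72 h over a 256-fold dose range (nine 2-fold or five 4-fold steps up to the top dose). Adherent lines were fixed and stained with the nucleic acid dye Syto60, suspension lines read with resazurin; signal relative to control wells, capped at 0 and 100%. One two-parameter sigmoid per drug and line, fitted in a mixed model over all curves with the slope shared within a line.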

Belinostat = compound: O=C(/C=C/c1cccc(S(=O)(=O)Nc2ccccc2)c1)NO [Belinostat]; settings: top dose 20 µM; top dose inferred
Procedure: as §1

JNK Inhibitor VIII = compound: CCOc1nc(NC(=O)Cc2cc(OC)ccc2OC)cc(N)c1C#N [JNK Inhibitor VIII]; settings: top dose 10 µM; top dose inferred
Procedure: as §1

NSC-207895 = compound: CN1CCN(c2ccc([N+](=O)[O-])c3no[n+]([O-])c23)CC1 [NSC-207895]; settings: top dose 20 µM; top dose inferred
Procedure: as §1

JNJ-26854165 = compound: c1ccc2c(CCNc3ccc(Nc4ccncc4)cc3)c[nH]c2c1 [JNJ-26854165]; settings: top dose 10 µM
Procedure: as §1

Cyclopamine = compound: CC1=C2C[C@H]3[C@@H](CC=C4C[C@@H](O)CC[C@@]43C)[C@@H]2CC[C@]12O[C@@H]1C[C@H](C)CN[C@H]1[C@H]2C [Cyclopamine]; settings: top dose 16 µM; top dose inferred
Procedure: as §1

AMG-706 = compound: CC1(C)CNc2cc(NC(=O)c3cccnc3NCc3ccncc3)ccc21 [AMG-706]; settings: top dose 2 µM; top dose inferred
Procedure: as §1

CGP-60474 = compound: OCCCNc1cc(-c2ccnc(Nc3cccc(Cl)c3)n2)ccn1 [CGP-60474]; settings: top dose 0.256 µM; top dose inferred
Procedure: as §1

OSI-906 = compound: C[C@]1(O)C[C@@H](c2nc(-c3ccc4ccc(-c5ccccc5)nc4c3)c3c(N)nccn32)C1 [OSI-906]; settings: top dose 2.56 µM; top dose inferred
Procedure: as §1

YM155 = compound: COCC[n+]1c2c(n(Cc3cnccn3)c1C)C(=O)c1ccccc1C2=O [YM155]; settings: top dose 5.12 µM
Procedure: as §1

FTI-277 = compound: COC(=O)[C@H](CCSC)NC(=O)c1ccc(NC[C@@H](N)CS)cc1-c1ccccc1 [FTI-277]; settings: top dose 1.024 µM; top dose inferred
Procedure: as §1

SB-715992 = compound: Cc1ccc(C(=O)N(CCCN)[C@@H](c2nc3cc(Cl)ccc3c(=O)n2Cc2ccccc2)C(C)C)cc1 [SB-715992]; settings: top dose 0.128 µM; top dose inferred
Procedure: as §1

Docetaxel = compound: CC(=O)O[C@@]12CO[C@@H]1C[C@H](O)[C@@]1(C)C(=O)[C@H](O)C3=C(C)[C@@H](OC(=O)[C@H](O)[C@@H](NC(=O)OC(C)(C)C)c4ccccc4)C[C@@](O)([C@@H](OC(=O)c4ccccc4)[C@H]21)C3(C)C [Docetaxel]; settings: top dose 0.0125 µM
Procedure: as §1

[1] = top dose 1 µM, screen: GDSC drug entry 1218, top dose inferred
[2] = top dose 2.56 µM, screen: GDSC drug entry 163

| Cell Line | AUC (JQ1; [1]) | IC50 (JQ1; [1]) [nM] | AUC (JQ1; [2]) | IC50 (JQ1; [2]) [nM] | AUC (Belinostat) | IC50 (Belinostat) [nM] | AUC (JNK Inhibitor VIII) | IC50 (JNK Inhibitor VIII) [nM] | AUC (NSC-207895) | IC50 (NSC-207895) [nM] | AUC (JNJ-26854165) | IC50 (JNJ-26854165) [nM] | AUC (Cyclopamine) | IC50 (Cyclopamine) [nM] | AUC (AMG-706) | IC50 (AMG-706) [nM] | AUC (CGP-60474) | IC50 (CGP-60474) [nM] | AUC (OSI-906) | IC50 (OSI-906) [nM] | AUC (YM155) | IC50 (YM155) [nM] | AUC (FTI-277) | IC50 (FTI-277) [nM] | AUC (SB-715992) | IC50 (SB-715992) [nM] | AUC (Docetaxel) | IC50 (Docetaxel) [nM] |
| --- | --- | --- | --- | --- | --- | --- | --- | --- | --- | --- | --- | --- | --- | --- | --- | --- | --- | --- | --- | --- | --- | --- | --- | --- | --- | --- | --- | --- |
| NCI-H1648 (lung adenocarcinoma, adherent) | 0.984 | > 1000 | 0.858 | 2300 | 0.33 | 407 | 0.924 | > 10000 | 0.943 | > 20000 | 0.872 | > 10000 | 0.955 | > 16000 | 0.859 | 1820 | 0.706 | 63.7 | 0.875 | > 2560 | 0.107 | < 20 | 0.981 | > 1020 | 0.653 | 21.9 | – | – |
| NCI-H1963 (small cell lung carcinoma, suspension) | – | – | 0.945 | > 2560 | 0.94 | > 20000 | – | – | 0.917 | > 20000 | 0.991 | > 10000 | 0.988 | > 16000 | – | – | 0.739 | 68.9 | 0.976 | > 2560 | 0.342 | 125 | 0.988 | > 1020 | – | – | 0.854 | 7.96 |
| NCI-H1975 (lung adenocarcinoma, adherent) | 0.98 | > 1000 | 0.786 | 1280 | 0.395 | 615 | 0.979 | > 10000 | 0.927 | > 20000 | 0.902 | > 10000 | 0.983 | > 16000 | 0.978 | > 2000 | 0.709 | 68.3 | 0.784 | 1250 | 0.032 | < 20 | 0.978 | > 1020 | 0.81 | 79.4 | – | – |
| NKM-1 (acute myeloid leukaemia, suspension) | 0.835 | 685 | 0.629 | 368 | 0.246 | 226 | 0.983 | > 10000 | 0.8 | 10000 | 0.617 | 1330 | 0.984 | > 16000 | 0.958 | > 2000 | 0.749 | 84.9 | 0.916 | > 2560 | 0.027 | < 20 | 0.983 | > 1020 | 0.553 | 11.2 | – | – |
| RL95-2 (endometrium, adherent) | 0.986 | > 1000 | 0.808 | 1310 | 0.325 | 408 | – | – | 0.849 | 14800 | – | – | 0.973 | > 16000 | – | – | 0.649 | 41.2 | – | – | 0.031 | < 20 | 0.986 | > 1020 | 0.957 | > 128 | 0.539 | 0.995 |

The IC50 comes from the fitted curve, where viability falls to half of the control; a limit (>, <) means that the fit lies beyond the doses tested. AUC sums up the same curve from the lowest dose to the 256-fold higher top dose; values near 1 show little effect. For some of these results: The top dose, if marked as inferred, was derived from the fitted curves, not read from the paper. For some of these results: Where an entry number is given, a second screen of the drug exists; the two often differ.
